B1: Adrenocorticotropic hormone receptor (Homo sapiens), Q01718 (parent)
chain: MKHIINSYENINNTARNNSDCPRVVLPEEIFFTISIVGVLENLIVLLAVFKNKNLQAPMYFFICSLAISDMLGSLYKILENILIILRNMGYLKPRGSFETTADDIIDSLFVLSLLGSIFSLSVIAADRYITIFHALRYHSIVTMRRTVVVLTVIWTFCTGTGITMVIFSHHVPTVITFTSLFPLMLVFILCLYVHMFLLARSHTRKISTLPRANMKGAITLTILLGVFIFCWAPFVLHVLLMTFCPSNPYCACYMSLFQVNGMLIMCNAVIDPFIYAFRSPELRDAFKKMIFCSRYW
partner: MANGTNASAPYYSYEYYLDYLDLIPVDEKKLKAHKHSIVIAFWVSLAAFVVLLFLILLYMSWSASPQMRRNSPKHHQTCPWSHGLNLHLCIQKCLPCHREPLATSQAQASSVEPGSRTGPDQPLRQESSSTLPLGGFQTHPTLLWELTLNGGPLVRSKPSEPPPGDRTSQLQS

Variants of: B1
Details: with q8tcy5-1 MRAP

effect of a mutation on the interaction	Variant
with no effect	MKHIINSYENINNTARNNSDCPRVVLPEEIFFTISIVGVLENLIVLLAVFKNKNLQAPMYFFICSLAISDMLGSLYKILENILIILRNMGYLKPRGSFETTADDIIDSLFVLSLLGSIFSLSVIAADRYITIFHALRYHSIVTMRRTVVVLTVIWTFCTGTGITMVIFSHHVPTVITFTSLFPLMLVFILCLYVHMFLLARSHTRKISTLPRANMKGAITLTILLRVFIFCWAPFVLHVLLMTFCPSNPYCACYMSLFQVNGMLIMCNAVIDPFIYAFRSPELRDAFKKMIFCSRYW [G226R]
with no effect	MKHIINSYENINNTARNNSDCPRVVLPEEIFFTISIVGVLENLIVLLAVFKNKNLQAPMYFFICSLAISDMLGSLYKILENILIILRNMGYLKPRGSFETTADDIIDSLFVLSLLGSIFSLSVIAADRYNTIFHALRYHSIVTMRRTVVVLTVIWTFCTGTGITMVIFSHHVPTVITFTSLFPLMLVFILCLYVHMFLLARSHTRKISTLPRANMKGAITLTILLGVFIFCWAPFVLHVLLMTFCPSNPYCACYMSLFQVNGMLIMCNAVIDPFIYAFRSPELRDAFKKMIFCSRYW [I130N]
with no effect	MKHIINSYENINNTARNNSDCPRVVLPEEIFFTISIVGVLENLIVLLAVFKNKNPQAPMYFFICSLAISDMLGSLYKILENILIILRNMGYLKPRGSFETTADDIIDSLFVLSLLGSIFSLSVIAADRYITIFHALRYHSIVTMRRTVVVLTVIWTFCTGTGITMVIFSHHVPTVITFTSLFPLMLVFILCLYVHMFLLARSHTRKISTLPRANMKGAITLTILLGVFIFCWAPFVLHVLLMTFCPSNPYCACYMSLFQVNGMLIMCNAVIDPFIYAFRSPELRDAFKKMIFCSRYW [L55P]
with no effect	MKHIINSYENINNTARNNSDCPRVVLPEEIFFTISIVGVLENLIVLLAVFKNKNLQAPMYFFICSLAISDMLGSLYKILENILIILRNMGYLKPRGSFETTADDIIDSLFVLSLLGSIFSLSVIAADRYITIFHALWYHSIVTMRRTVVVLTVIWTFCTGTGITMVIFSHHVPTVITFTSLFPLMLVFILCLYVHMFLLARSHTRKISTLPRANMKGAITLTILLGVFIFCWAPFVLHVLLMTFCPSNPYCACYMSLFQVNGMLIMCNAVIDPFIYAFRSPELRDAFKKMIFCSRYW [R137W]
